Measurements reported in PubChem BioAssay AID1948 (National Center for Advancing Translational Sciences (NCATS), 2009).
Out of some 110,000 compounds screened, about 20 (0.02%) were called active. Inconclusive results, whose numbers are uncertain, are shown with a selection of clear calls. Calls follow the shape of the dose curve; as a rule, active = well fitted activation curve with a large enough effect; inconclusive = small, poorly fitted or top-dose-only effect; inactive = no such curve, though single readings can be large or run the other way. Potencies of inconclusive entries are left out as doubtful fits.

Experiment: qHTS Assay for Compounds that Induce Erasure of Genomic Imprints;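 as to activity change, positive = activation: 0% = negative control wells on the plate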
Conditions: mouse ES Peg3-LacZ reporter, beta-gal luminescence, 40 h; activity change, positive = activation: at 10.9 µM (top of the series) unless noted
In short: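 Imprint erasure is scored as LacZ activity from the silenced maternal Peg3 allele in feeder-free female ES cells cultured 40 h with LIF. Luminescence is normalized to in-plate negative controls and fitted to the Hill equation.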
Potency is read from the fitted curve at half-maximal effect; tags tell the direction and shape of the fitted curve.

Structure (SMILES)	activity change, positive = activation	Potency
COCCNc1nc(-c2ccc(N(C)C)cc2)nc2ccccc12	inactive: -28.1% [at 60.7 µM]	–
Cc1ccc(-n2cc3c(c2-c2ccccc2Br)c(=O)n(C)c(=O)n3C)cc1N	inactive: -4.44%	–
COC(=O)CC(=O)CSc1nc2c(cc1C#N)CCCCC2	–	inconclusive [activator, single point]
Cc1noc(C)c1-c1cc(NCCN2CCOCC2)ncn1	–	inconclusive [activator, partial curve]
NC(=O)/N=C(\N)NC(=O)c1ccccc1	–	inconclusive [activator, single point]
CC(=O)c1cnc(N2CCCCC2)nc1C	–	inconclusive [activator, single point]
CCOC(=O)CCc1c(C)nc2c(c(C)nn2C(C)(C)C)c1C	inactive: -17.7% [at 60.7 µM]	–
COc1ccc(CCNC(=O)c2cc(Sc3cccc(Cl)c3)nc3ccccc23)cc1OC	inconclusive: 46.1% [activator]	–
CCN(CC)CCCNC(=O)c1cc(-c2ccc(OC)c(OC)c2)on1	inactive: -14%	–
CCOc1ccc(CNC(=O)c2cc3c(=O)n(C)c4ccccc4c3s2)cc1	inconclusive: 49.3% [activator]	–
CCc1ccc(Nc2cc(C)nc3nc(Cc4ccc(Cl)cc4)nn23)cc1	inactive: -13.7%	–
CCCn1c(Nc2nc3ccccc3n2C)nc2ccccc21	inactive: -37.6% [at 60.7 µM]	–
Cc1ccc(OC(=O)c2snnc2C)cc1C	inconclusive: 43.7% [activator]	–
CCOC(=O)CNc1ncnc2c1nnn2C	inactive: -11.7%	–
COc1ccc(CNc2ncncc2-c2cccc(NS(C)(=O)=O)c2)c(OC)c1	–	inconclusive [activator, partial curve, poor fit]
O=C(CC1C(=O)N(c2ccccc2)C(=O)N1CCc1cccs1)Nc1ccc(Cl)cc1 (stereo not given)	inconclusive: 38% [activator]	–
Cc1ccccc1C(=O)Nc1ccc(Cl)cn1	inactive: -76.4% [at 60.7 µM]	–
CCOC(=O)c1c(C)[nH]c(C(=O)COC(=O)c2cn(CC)c3nc(C)ccc3c2=O)c1C	–	inconclusive [activator, partial curve, poor fit]
COc1ccc(OC)c(-c2cc(C(=O)Nc3cc(C)on3)no2)c1	inactive: -15.8% [at 60.7 µM]	–
CCC(C)C1C(C#N)=C(N)Oc2n[nH]c(-c3ccccc3)c21 (stereo not given)	inactive: -52.6% [at 60.7 µM]	–
COC(=O)c1c(C)sc(-c2c(-c3ccc4c(c3)OCCO4)[nH]c3c2c(=O)[nH]c(=O)n3C)c1O	inconclusive: 32.8% [activator]	–
c1cnc2c(OCc3nc4ccccc4[nH]3)cccc2c1	inactive: -21.7% [at 60.7 µM]	–
Cc1oc(-c2ccc(Cl)cc2)cc1-c1nn2c(-c3ccoc3C)nnc2s1	inactive: 6.94% [at 60.7 µM]	–
N#CCCn1c(=O)c(-c2ccc(Cl)cc2)nc2cnc(Oc3ccccc3)nc21	–	inconclusive [activator, single point]
COC(=O)c1ccc(CN(Cc2ccc(OC)c(OC)c2)S(=O)(=O)c2cc(C(=O)Nc3cccc(C)c3)ccc2F)cc1	inactive: -12.7%	–

Structure (SMILES)	activity change, positive = activation	Potency
Cc1ccc(-n2ncc3c(N4CCCCCC4)ncnc32)cc1C	inactive: -15.7%	–
CCOc1ccccc1N1CC(c2nc3ccccc3n2CCCCOc2cc(C)ccc2C)CC1=O (stereo not given)	inactive: -8.16%	–
O=C1NCCN1C(=O)c1ccccc1F	–	inconclusive [activator, full curve, poor fit]
CCOC(=O)CSc1nnc([C@H](CC(C)C)NC(=O)OC(C)(C)C)o1	–	inconclusive [activator, single point]
OCC1OC(n2cnc3c(NCc4ccco4)ncnc32)C(O)C1O (stereo not given)	–	inconclusive [activator, single point]
COc1ccc(-c2nc3c4ccccc4n(CC(=O)N4CCN(c5ccccc5F)CC4)c(=O)n3n2)cc1	inconclusive: 37% [activator]	–
CCSc1nc2c(c(=O)[nH]c(=O)n2C)n1C/C=C(/C)Cl	–	inconclusive [activator, single point]
Cc1ccc(CCNC(=O)Cn2ncc3c(=O)oc4ccccc4c32)cc1	inconclusive: 40.2% [activator]	–
CCOc1ccccc1N(C)C(=O)c1cc(S(=O)(=O)NCc2ccc(C)cc2)ccc1F	inconclusive: 86.1% [activator]	–
CCOc1ccc(CNS(=O)(=O)c2ccc3[nH]c(=O)ccc3c2)cc1	inconclusive: 49.5% [activator]	–
Cc1ccc(N(CC(=O)NCc2ccc(F)cc2)S(=O)(=O)c2c(C)nn(C)c2C)cc1	inconclusive: 30.8% [activator]	–
COc1ccc(NC(=O)c2c(-c3ccc(C)cc3)nnc3ccccc23)cc1Cl	inactive: 8.43%	–
OCC(O)C(O)[C@H](O[C@H]1OC(CO)C(O)C(O)C1O)[C@H](O)CO (stereo not given in full)	–	inconclusive [activator, partial curve]
CCCCNC(=O)c1ccc2c(c1)NC(=O)C(CS(=O)(=O)Cc1cccc(C)c1)N2 (stereo not given)	inactive: -7.01%	–
Cc1ccc(Cl)cc1NC(=O)Cn1c(=O)n(CCCS(=O)(=O)C2CCCCC2)c(=O)c2ccccc21	inconclusive: 36.9% [activator]	–
O=C(CSc1nnc(COc2ccccc2)n1Cc1ccco1)Nc1ccc2c(c1)OCCO2	–	inconclusive [activator, partial curve]
Cc1cnc(CNc2ncnc3ccc(-c4ccc5c(c4)OCO5)cc23)cn1	–	inconclusive [activator, full curve]
O=C(Cn1c(=O)oc2cc(S(=O)(=O)N3CCCCCC3)ccc21)NCc1ccccc1Cl	inactive: -23.4%	–
CC(C)(C)n1ncc2c(=O)n(CC(=O)NCc3ccccc3)cnc21	–	inconclusive [activator, partial curve]
CN(Cc1ccccc1)Cc1nc2c(c(=O)n(C)c(=O)n2C)n1CCc1ccccc1	inactive: -10.3% [at 60.7 µM]	–
COc1ccc(CNC(=O)C2CCCN(S(=O)(=O)c3cccc4nsnc34)C2)cc1 (stereo not given)	inconclusive: 36.8% [activator]	–
CCc1ccc(N(CC)C(=O)c2cc3c(=O)oc4ccc(C)cc4c3s2)cc1	inactive: 9.05%	–
Cc1nn(C(=O)c2ccc(Cl)cc2)c(C)c1S(=O)(=O)N1CCCCCC1	inconclusive: 60.5% [activator]	–
CCN(CC)c1ccc(C2NC(=O)NC(C)=C2C(=O)Nc2ccccc2)cc1 (stereo not given)	–	inconclusive [activator, partial curve]
Cc1ccc(CNc2ncnc3c2nnn3C)cc1	inconclusive: 30.9% [activator]	–

Structure (SMILES)	activity change, positive = activation	Potency
Cc1sc2nc(C(C)C)nc(SCC(=O)NCc3ccco3)c2c1C	inactive: -15.7% [at 60.7 µM]	–
COC(=O)c1sc2cccc(F)c2c1S(=O)(=O)Nc1ccc(N(C)C)cc1	inconclusive: 32% [activator]	–
Nc1nc2ncc(CNc3ccc(C(=O)NC(CCC(=O)O)C(=O)O)cc3)nc2c(=O)[nH]1 (stereo not given)	–	inconclusive [activator, single point]
CCOC(=O)c1ccc(N2C(=O)c3n[nH]c(-c4ccco4)c3C2c2ccc(OCC)cc2)cc1 (stereo not given)	inconclusive: 32.8% [activator]	–
O=C(C1CCC1)N1CCCc2cc(S(=O)(=O)N3CCN(c4ccccc4)CC3)ccc21	inconclusive: 88.5% [activator]	–
Cc1ccc(S(=O)(=O)c2nnn3c2nc(NC(C)C)c2sccc23)cc1	inactive: 16.1%	–
COc1ccc(Oc2ncc3nc(-c4cccc(C#N)c4)c(=O)n(Cc4cccc(OC)c4)c3n2)cc1	–	inconclusive [activator, single point]
Cc1ccc(NC(=O)[C@H]2O[C@@H]3OC(C)(C)O[C@@H]3[C@H]3OC(C)(C)O[C@H]32)cc1F	inconclusive: 35% [activator]	–
NC(=O)c1ccc(N2CCCCC2)c(N2C(=O)C3C4C=CC(C4)C3C2=O)c1 (stereo not given)	–	inconclusive [activator, single point]
COc1cccc(-n2ccnc2SCC(=O)Nc2ccc(Cl)c(Cl)c2)c1	inconclusive: 56.1% [activator]	–
COc1cccc(C2C(C(=O)c3cc4ccccc4o3)=C(O)C(=O)N2c2cc(C)on2)c1OC (stereo not given)	–	inconclusive [activator, single point]
CC(=O)c1ccc(NS(=O)(=O)c2cnc(N)nc2)cc1	inconclusive: 30.2% [activator]	–
CCCc1cc(C(=O)Nc2cccc(C(C)=O)c2)no1	inactive: -0.493% [at 60.7 µM]	–
CCOC(=O)CSC1=Nc2ccccc2C2=NC(CCC(=O)NCc3ccc(F)cc3)C(=O)N12 (stereo not given)	inconclusive: 85.9% [activator]	–
COc1ccc(OC)c(CNC(=O)c2ccc(C)c(NC(=O)c3nsc4ccccc34)c2)c1	inconclusive: 41.4% [activator]	–
COc1ccccc1Cn1cc(C(=O)c2ccc(Cl)cc2)c(=O)c2ccccc21	inactive: -14%	–
O=C(COc1ccccc1)Nc1ccccc1N1CCN(c2ccc(F)cc2)CC1	inactive: 19% [at 60.7 µM]	–
O=C(O)CCc1nc(-c2ccccc2)c(-c2ccccc2)o1	–	inconclusive [activator, partial curve, poor fit]
c1ccc(-c2cn3nc(-c4ccccc4)sc3n2)cc1	inactive: 0.658% [at 60.7 µM]	–
c1ccc(-c2cccc(-c3ccccn3)n2)nc1	inactive: -20.1% [at 60.7 µM]	–
Cc1cccn2c(=O)c(C(=O)N3CCN(c4ccccc4)CC3)cnc12	inactive: -10.7%	–
CCOC(=O)c1nn(-c2ccccc2)c(C(=O)OCC)c1N	–	inconclusive [activator, single point]
COCCN(Cc1cc2cc3c(cc2[nH]c1=O)OCO3)C(=O)c1cccs1	–	inconclusive [activator, single point]
CCN1CCN(C(=O)CN(Cc2ccccc2)S(C)(=O)=O)CC1	–	inconclusive [activator, single point]
Cn1cc(-c2nc3ccccc3[nH]2)c2ccccc21	inactive: -34.7% [at 60.7 µM]	–
